In all, about 33,000 sequences were measured (“E-score (-0.5 to 0.5)”: median about -0.04, highest 2% from about 0.36 on). This is one part of the list.
What follows are sequences tested against T1, Hmlalpha2 (UniProt P0CY09) (assay: PBM E-score (8-mer binding enrichment) (E-score (-0.5 to 0.5)); higher = stronger / more preferred TF binding; most listed sequences are background and not binding sites). Settings: protein concentration: 200 nM; construct: GST-full length.
T1 sequence: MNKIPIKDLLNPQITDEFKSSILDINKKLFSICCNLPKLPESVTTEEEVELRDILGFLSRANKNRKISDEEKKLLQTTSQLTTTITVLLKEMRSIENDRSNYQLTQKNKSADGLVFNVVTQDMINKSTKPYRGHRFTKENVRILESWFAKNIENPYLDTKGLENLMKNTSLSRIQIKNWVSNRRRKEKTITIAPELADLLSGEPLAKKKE
Procedure, shortened: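 The E-score, a modified Wilcoxon-Mann-Whitney statistic, was computed by the Universal PBM Analysis Suite for every ungapped eight-base word pooled with its reverse complement. Scans behind it were normalised with masliner after bound GST-tagged yeast transcription factors were detected with fluorescent anti-GST. The proteins, at about 100-200 nM, had been applied to universal all-10-mer Agilent arrays made double-stranded by primer extension.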
CCCACCGC was tested, and the “PBM E-score” value was -0.285.
With ATCTCCTG the “PBM E-score” value was -0.0358.
For CTTTTCGA, the “PBM E-score” value was 0.0253.
With GTATCGAA the “PBM E-score” value was 0.0617.
For CGAACAAA, the “PBM E-score” value was 0.0922.
TATTCGCA was tested, and the “PBM E-score” value was 0.137.
In the case of ATAGAGGC, the “PBM E-score” value is reported as -0.101.
With CCATATGA the “PBM E-score” value was -0.136.
For ATTCAGGA, the “PBM E-score” value was -0.119.
AGTATCGC was tested, and the “PBM E-score” value was 0.0494.
For CTTCACGA, the “PBM E-score” value was -0.299.
With GCATGGTA the “PBM E-score” value was 0.189.
With AAAGAACT the “PBM E-score” value was 0.116.
CCCTCACA was tested, and the “PBM E-score” value was -0.133.
ACCATCTC was tested, and the “PBM E-score” value was -0.178.
In the case of TCTGCCCA, the “PBM E-score” value is reported as -0.194.
With AGTGCGAT the “PBM E-score” value was -0.0424.
In the case of GGTTCAGA, the “PBM E-score” value is reported as -0.235.
With GGTTTTGA the “PBM E-score” value was -0.0124.
With CTTTTGGA the “PBM E-score” value was -0.174.
AGAGGACC was tested, and the “PBM E-score” value was -0.2.
With TCAATAAA the “PBM E-score” value was 0.0976.
TCCAGAGA was tested, and the “PBM E-score” value was -0.278.
For CCGATACC, the “PBM E-score” value was -0.102.
In the case of CAACCCAG, the “PBM E-score” value is reported as -0.073.
CTGGACAA was tested, and the “PBM E-score” value was -0.0143.
In the case of CGACAAAA, the “PBM E-score” value is reported as 0.111.
For ACCACCGA, the “PBM E-score” value was -0.248.
In the case of CCTCCTGC, the “PBM E-score” value is reported as -0.236.
For AACCTTGG, the “PBM E-score” value was -0.103.
CGCATTAA was tested, and the “PBM E-score” value was 0.201.
In the case of TTGAGCAA, the “PBM E-score” value is reported as 0.00244.
In the case of GAGTACGC, the “PBM E-score” value is reported as 0.0739.
For GCAGAGAC, the “PBM E-score” value was -0.303.
For TACCGAGA, the “PBM E-score” value was -0.124.
In the case of CAGACCAC, the “PBM E-score” value is reported as -0.115.
In the case of AATTTGAC, the “PBM E-score” value is reported as 0.204.
For GACTCAGA, the “PBM E-score” value was -0.358.
In the case of AAGCCCCG, the “PBM E-score” value is reported as -0.127.
ATTATAAA was tested, and the “PBM E-score” value was 0.116.
CCTAGCGA was tested, and the “PBM E-score” value was -0.132.
With ACTGCATC the “PBM E-score” value was -0.0503.
In the case of CGGTTAAA, the “PBM E-score” value is reported as -0.00837.
GAGGTTGA was tested, and the “PBM E-score” value was -0.12.
With GACGGTGC the “PBM E-score” value was -0.145.
For AGCGTTGA, the “PBM E-score” value was 0.00374.
In the case of GTGGCCAC, the “PBM E-score” value is reported as -0.093.
ACTCGCGG was tested, and the “PBM E-score” value was -0.0858.
AGGGAGGC was tested, and the “PBM E-score” value was -0.339.
For ATGTCACG, the “PBM E-score” value was 0.172.
For CGATGATC, the “PBM E-score” value was -0.0714.
With AAGACGAG the “PBM E-score” value was -0.11.
In the case of GAGGCAAA, the “PBM E-score” value is reported as -0.218.
With ACTGGAAC the “PBM E-score” value was -0.106.
For TTTATAAA, the “PBM E-score” value was 0.231.
ATCGCTCG was tested, and the “PBM E-score” value was -0.128.
In the case of ACGATAAC, the “PBM E-score” value is reported as 0.144.
For ACTACACT, the “PBM E-score” value was 0.253.
For AGTCGATG, the “PBM E-score” value was -0.0586.
AAGCCAGT was tested, and the “PBM E-score” value was -0.183.
For ATGAGGTG, the “PBM E-score” value was -0.035.
For GCAGGGTA, the “PBM E-score” value was -0.17.
TGGACACA was tested, and the “PBM E-score” value was 0.144.
AATCCCTG was tested, and the “PBM E-score” value was -0.11.
For CCCGTCCC, the “PBM E-score” value was -0.318.
In the case of CAAGGCTC, the “PBM E-score” value is reported as -0.136.
With GTAACTGA the “PBM E-score” value was 0.111.
For CGAGCATA, the “PBM E-score” value was -0.325.
AAGTGCCA was tested, and the “PBM E-score” value was 0.0324.
GTTGTGGA was tested, and the “PBM E-score” value was 0.0527.
For GGATGCAA, the “PBM E-score” value was -0.0214.
CGAAAAAC was tested, and the “PBM E-score” value was 0.0238.
With CATTACAA the “PBM E-score” value was 0.411.
With AAACTGGA the “PBM E-score” value was -0.0493.
With CAGTATGG the “PBM E-score” value was -0.16.
For TCAACCGA, the “PBM E-score” value was 0.0455.
CAGCGTAA was tested, and the “PBM E-score” value was 0.173.
With CCACAGTC the “PBM E-score” value was -0.295.
CGATCGTC was tested, and the “PBM E-score” value was -0.122.
In the case of AAACATAT, the “PBM E-score” value is reported as 0.311.
In the case of ATAGGGGC, the “PBM E-score” value is reported as -0.215.
With ACCGTTCC the “PBM E-score” value was -0.0822.
CCGTGAGC was tested, and the “PBM E-score” value was -0.159.
With AGAGACGA the “PBM E-score” value was -0.124.
For GCAGTGGC, the “PBM E-score” value was -0.231.
For CACCAGTA, the “PBM E-score” value was -0.0753.
With AAACGTCG the “PBM E-score” value was -0.0779.
In the case of AATTATGT, the “PBM E-score” value is reported as 0.333.
GAACTGGC was tested, and the “PBM E-score” value was -0.269.
In the case of AGAAGAGC, the “PBM E-score” value is reported as -0.256.
In the case of AGACCACA, the “PBM E-score” value is reported as -0.122.
In the case of CCGAATCG, the “PBM E-score” value is reported as -0.113.
ACTACGCG was tested, and the “PBM E-score” value was 0.337.
GAGAGCTC was tested, and the “PBM E-score” value was -0.3.
For ATCAGTTC, the “PBM E-score” value was -0.103.
With AGATCCAG the “PBM E-score” value was -0.0629.
In the case of CTCCACTA, the “PBM E-score” value is reported as -0.0436.
AATCGCGT was tested, and the “PBM E-score” value was 0.217.
With AATCGGTA the “PBM E-score” value was 0.0938.
In the case of AGTTGGAA, the “PBM E-score” value is reported as -0.0867.
TCACCTAA was tested, and the “PBM E-score” value was 0.0634.
In the case of GAATGTGA, the “PBM E-score” value is reported as -0.0574.
In the case of CATTCGCA, the “PBM E-score” value is reported as -0.044.
With CCCACCAA the “PBM E-score” value was -0.14.
AAGGCCCT was tested, and the “PBM E-score” value was -0.0884.
In the case of CTCAAAGC, the “PBM E-score” value is reported as -0.0843.
For AGTCGCAA, the “PBM E-score” value was 0.049.
With ATTAATAG the “PBM E-score” value was 0.144.
For AGCGTACG, the “PBM E-score” value was -0.0994.
AGGGTCAT was tested, and the “PBM E-score” value was -0.146.
In the case of AACGTCGT, the “PBM E-score” value is reported as 0.0626.
CTGGCTGA was tested, and the “PBM E-score” value was -0.348.
For GTGTAGTA, the “PBM E-score” value was 0.323.
In the case of ACCTTAGC, the “PBM E-score” value is reported as -0.0149.
For CTAGAACA, the “PBM E-score” value was 0.0794.
For CCGTAAGA, the “PBM E-score” value was -0.133.
For TGAGCGAA, the “PBM E-score” value was -0.0285.
In the case of AACCCCGA, the “PBM E-score” value is reported as -0.0634.
With GGGCCCCC the “PBM E-score” value was -0.379.
TGGTCCAA was tested, and the “PBM E-score” value was -0.192.
CTAGGGAG was tested, and the “PBM E-score” value was -0.263.
For GACCTAAA, the “PBM E-score” value was -0.0367.
In the case of AGGTAGGA, the “PBM E-score” value is reported as -0.161.
With ACACGATA the “PBM E-score” value was 0.433.
For GAAAGCAA, the “PBM E-score” value was 0.0633.
In the case of ATAGTTAC, the “PBM E-score” value is reported as 0.245.
With AACCAACC the “PBM E-score” value was -0.0848.
With ACAGGTCG the “PBM E-score” value was -0.12.
With AATTGTGG the “PBM E-score” value was 0.0656.
GTGGGGCA was tested, and the “PBM E-score” value was -0.417.
ATCACTTA was tested, and the “PBM E-score” value was 0.18.
For GGCTCTGA, the “PBM E-score” value was -0.0387.
For ATTAATCG, the “PBM E-score” value was 0.102.
In the case of TCTCATCA, the “PBM E-score” value is reported as -0.0405.
In the case of CTGTAGGC, the “PBM E-score” value is reported as -0.0516.
For CTTACTTA, the “PBM E-score” value was 0.0692.
With CACGTTAC the “PBM E-score” value was 0.231.
With GGTGTAAA the “PBM E-score” value was 0.351.
CTACACTA was tested, and the “PBM E-score” value was 0.208.
GGTTTCTA was tested, and the “PBM E-score” value was 0.0585.
With CTGTGTTA the “PBM E-score” value was 0.398.
With ATTATCCA the “PBM E-score” value was 0.0364.
For CTACGGCA, the “PBM E-score” value was -0.12.
In the case of GATTTAAC, the “PBM E-score” value is reported as 0.231.
GTCGTTCA was tested, and the “PBM E-score” value was -0.0406.
With CCGGCCAA the “PBM E-score” value was -0.32.
CCTGCATC was tested, and the “PBM E-score” value was -0.226.
For AATGCCAG, the “PBM E-score” value was -0.208.
With ATGCGTAG the “PBM E-score” value was 0.214.
With ACGATACT the “PBM E-score” value was -0.0134.
With CTACATAC the “PBM E-score” value was 0.327.
For ATGCCACC, the “PBM E-score” value was -0.264.
With CGGCGAGA the “PBM E-score” value was -0.174.
With ATTATAGC the “PBM E-score” value was -0.184.
ATGCCTCA was tested, and the “PBM E-score” value was 0.0436.
CGGAGCAG was tested, and the “PBM E-score” value was -0.196.
In the case of CAGTGGAC, the “PBM E-score” value is reported as -0.169.
For GCTGGCGA, the “PBM E-score” value was -0.212.
TAGTCGAA was tested, and the “PBM E-score” value was -0.0303.
In the case of AGTACGAA, the “PBM E-score” value is reported as 0.0588.
TATATGCA was tested, and the “PBM E-score” value was 0.00434.
CGCCAGCA was tested, and the “PBM E-score” value was -0.0496.
With CAACAACA the “PBM E-score” value was 0.357.
In the case of GTAGTAGA, the “PBM E-score” value is reported as 0.175.
For CGCCGACC, the “PBM E-score” value was -0.274.
In the case of CCGCACCC, the “PBM E-score” value is reported as -0.198.
In the case of ACGCCCAG, the “PBM E-score” value is reported as 0.0316.
With CGAAGAGA the “PBM E-score” value was -0.0982.
AGGCATCA was tested, and the “PBM E-score” value was -0.225.
In the case of TCAGATAA, the “PBM E-score” value is reported as -0.00508.
In the case of AGATCGCA, the “PBM E-score” value is reported as 0.0387.
With AACAGTCC the “PBM E-score” value was -0.322.
